# Test results as given in article PMC6212790.
# The list shows a part of the results. At the low end of the ranking the order means little.
# Molecular target: T1, GST-Rok-C97-191 (UniProt O34857)
# T1 sequence: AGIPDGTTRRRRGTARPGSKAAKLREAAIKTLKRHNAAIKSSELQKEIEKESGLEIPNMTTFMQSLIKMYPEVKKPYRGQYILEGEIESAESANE
# Experiment: protein binding microarray;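 also: rank score from −0.5 (least bound) to 0.5 (best bound)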
# Conditions: Rok is a gene silencer of Bacillus subtilis; high values mean tight binding; most listed sequences are background and not binding sites; double strand, one strand shown
row,Sequence,binding signal
1,AATGAGCG,-0.202 E-score
2,GTTTCTTA,0.195 E-score
3,CAACCCCG,-0.309 E-score
4,CGATGTAA,0.00338 E-score
5,ACTGCAGG,0.022 E-score
6,CCTGGACA,-0.0965 E-score
7,GGTCCCAA,-0.183 E-score
8,ATAAGTGA,0.0568 E-score
9,ATAAAAAG,0.191 E-score
10,CCTGAACA,-0.0783 E-score
11,GATGGTTA,-0.0423 E-score
12,ATAGCGAT,0.232 E-score
13,CATGTGGA,0.124 E-score
14,GAGAGATC,-0.0931 E-score
15,AACAGAAC,0.0833 E-score
16,AACCGAAT,-0.106 E-score
17,ATCTCCAC,-0.0487 E-score
18,AAACAAAC,-0.248 E-score
19,CAGACCAG,-0.253 E-score
20,ACGGCTGA,-0.222 E-score
21,CTCGCGTC,-0.286 E-score
22,TGCCTGAA,-0.0885 E-score
23,AAATGTTG,0.00331 E-score
24,ACTGCCAA,-0.198 E-score
25,CCGAGTCG,-0.148 E-score

row,Sequence,binding signal
1,AGTCATCA,-0.123 E-score
2,GGAATTGA,0.105 E-score
3,GCGATTAC,-0.196 E-score
4,ATCTGCCG,0.13 E-score
5,AATTCTCG,0.243 E-score
6,GAGAACTA,0.242 E-score
7,CATTGATC,0.197 E-score
8,ATCGATCA,0.179 E-score
9,GGAAGCAA,-0.106 E-score
10,AGTATAAC,0.13 E-score
11,GCAACTCA,-0.0426 E-score
12,CGTGCCCA,-0.304 E-score
13,GGACGGCC,-0.357 E-score
14,CAATAGCA,0.0689 E-score
15,GCAGATCA,-0.215 E-score
16,ATCACTGG,-0.0556 E-score
17,TAGATACA,0.329 E-score
18,CGAGTAAG,-0.262 E-score
19,AACCGTCG,-0.167 E-score
20,CGTTTTGA,-0.0763 E-score
21,CTGTTGCA,-0.0379 E-score
22,CTCGTGAC,-0.183 E-score
23,ACCCCTCA,-0.271 E-score
24,TGATAGCA,0.236 E-score
25,CCAACAGC,-0.0285 E-score

row,Sequence,binding signal
1,GGGAACGA,-0.0532 E-score
2,ATGCTATC,0.283 E-score
3,CGATCTAA,-0.0333 E-score
4,GCTAATAA,0.212 E-score
5,AGTGAAGG,-0.256 E-score
6,CGTCCCGC,-0.289 E-score
7,ATCAACCA,-0.0125 E-score
8,CAAGCGTA,0.0078 E-score
9,CCGCGGAC,-0.146 E-score
10,TATCGGGA,0.156 E-score
11,AGACCGCC,-0.225 E-score
12,GTAACTCA,0.162 E-score
13,AATACTCC,0.275 E-score
14,ATTAGATC,0.0978 E-score
15,AGAAATCC,0.0236 E-score
16,AGCAGCTG,-0.199 E-score
17,AACAACAA,0.1 E-score
18,GTCTCTGA,0.0338 E-score
19,CATGAGGC,-0.211 E-score
20,CCGTTAGA,-0.114 E-score
21,ATAGAACG,0.159 E-score
22,CAATCCAG,0.0523 E-score
23,GCCATGGC,-0.27 E-score
24,CGCTAGCA,0.058 E-score
25,CGAGCCCA,-0.249 E-score

row,Sequence,binding signal
1,CACAGCAC,-0.0657 E-score
2,CTGATATC,-0.0192 E-score
3,AAGTGGGC,-0.201 E-score
4,ACAGAACC,-0.15 E-score
5,CAAGACGA,-0.0601 E-score
6,CTCTGTGA,-0.00307 E-score
7,CAAAGGAC,-0.168 E-score
8,CAGTCGCG,-0.242 E-score
9,AGACAGGC,-0.177 E-score
10,AAACGTGA,-0.0327 E-score
11,CTGAAAGC,-0.2 E-score
12,AAATGTAT,0.27 E-score
13,AGCTATCG,0.266 E-score
14,TCTCCAAA,0.0829 E-score
15,GTGGTGGA,-0.0143 E-score
16,CTCCCAAC,-0.0897 E-score
17,AGAACCAT,0.0927 E-score
18,CTAGCGAC,-0.0545 E-score
19,CGATACCA,0.079 E-score
20,CAGGTGGA,-0.331 E-score
21,CGTTAATC,-0.0282 E-score
22,AAGCCGAG,-0.0461 E-score
23,AGAGTAGA,0.143 E-score
24,AACCCATA,0.149 E-score
25,CCTCCAAA,-0.223 E-score

row,Sequence,binding signal
1,CATACCGA,0.0669 E-score
2,CCTCGCCA,-0.266 E-score
3,ACTACCCT,0.163 E-score
4,ATTAAACA,-0.0268 E-score
5,AGGGACGA,-0.218 E-score
6,AGTAATTG,0.31 E-score
7,CGATAGTA,0.382 E-score
8,TCACTCGA,0.0326 E-score
9,ACACTGGT,0.0216 E-score
10,AAGAAGAA,-0.202 E-score
11,TCACATGA,0.0772 E-score
12,ATGCTGGC,0.0262 E-score
13,GGATCTCA,-0.115 E-score
14,CCTGACTA,-0.135 E-score
15,ATGCGTGC,-0.261 E-score
16,ACGGGGCC,-0.132 E-score
17,GGGACACA,-0.121 E-score
18,GCGGGTCA,-0.143 E-score
19,CCGATTAC,-0.0648 E-score
20,ACCGTGAA,-0.0551 E-score
21,AACCGCTA,0.19 E-score
22,CATCTGAG,0.137 E-score
23,ACTGCAAA,0.0159 E-score
24,ACAGGACT,-0.143 E-score
25,AGTGGTCA,-0.106 E-score

row,Sequence,binding signal
1,CCGTTTCC,-0.121 E-score
2,AAATGGGT,0.18 E-score
3,CCCTAACG,-0.25 E-score
4,GCGCACGA,-0.25 E-score
5,AATAGTAC,0.293 E-score
6,CATGTCGA,-0.00927 E-score
7,AACTAGCT,0.342 E-score
8,ACTCCCAT,0.0238 E-score
9,CGGGATAA,0.0954 E-score
10,CCCGATTA,-0.026 E-score
11,ATGAATCC,0.0584 E-score
12,ATGTTCTC,0.0718 E-score
13,CCTTGACC,-0.0957 E-score
14,ACCGCCGT,-0.0192 E-score
15,AACATTGG,-0.141 E-score
16,AGCGGAGG,-0.227 E-score
17,GCAATTCA,0.0922 E-score
18,GATCATGA,0.0364 E-score
19,ACTGAAGC,-0.0393 E-score
20,GGTGTCAC,-0.0727 E-score
21,AGTCGCCC,-0.209 E-score
22,CACTAGGC,-0.0137 E-score
23,ACGGGTGG,-0.0117 E-score
24,TATAATAA,0.374 E-score
25,CGGCAAAC,0.168 E-score

row,Sequence,binding signal
1,GCACTTCC,-0.0221 E-score
2,CCACAAGA,-0.0122 E-score
3,GCTGATAC,-0.05 E-score
4,ACCGCGAG,-0.167 E-score
5,ATTGTAAC,0.185 E-score
6,GATATACC,0.153 E-score
7,CGAATTTC,0.0914 E-score
8,GAGTCACA,-0.0339 E-score
9,CACGACTA,0.0522 E-score
10,AATAAATA,0.258 E-score
11,CTCAGTAC,-0.0313 E-score
12,GACCGAGC,-0.195 E-score
13,AACGCGGA,-0.147 E-score
14,CAGGAGCG,-0.131 E-score
15,GCTCTGCA,-0.158 E-score
16,ATCCAAGA,0.167 E-score
17,CCCTTACA,0.0781 E-score
18,AGTGTGGC,-0.16 E-score
19,CATAGACC,0.0635 E-score
20,ATGCATCC,-0.109 E-score
21,TCGGTGAA,-0.0788 E-score
22,TTCCAGAA,0.0997 E-score
